Source: the supplement of paper PMC7580552
Structures can show the parent of a compound that is named as a salt. Some of the results follow. Single values are uncertain, as repeats are few or missing.

Each molecule was assayed on Escherichia coli W3110 (assay: planktonic growth (OD600) relative to untreated control; higher = more growth). Details: 10 µM; 20-24 h; 30 °C; TB.
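Also: stationary (unshaken) cultures in 96-well plates, started at OD600 0.05 from mid-exponential cells, with compounds supplied from DMSO stocks.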

| SMILES | planktonic growth |
| --- | --- |
| CCn1cc(C(=O)O)c(=O)c2ccc(C)nc21 [Nalidixic acid sodium salt] | 90% |
| C#CCN(C)Cc1ccccc1 [Pargyline hydrochloride] | 93% |
| CCN(CC)CCNC(=O)c1cc(S(C)(=O)=O)ccc1OC [Tiapride hydrochloride] | 90% |
| O=C(CCCN1CC=C(n2c(=O)[nH]c3ccccc32)CC1)c1ccc(F)cc1 [Droperidol] | 100% |
| COc1nc(C)nc(Cl)c1NC1=NCCN1 [Moxonidine] | 87% |
| CCCCS(=O)(=O)N[C@@H](Cc1ccc(OCCCCC2CCNCC2)cc1)C(=O)O [Tirofiban hydrochloride] | 105% |
| COc1cc2nc(N3CCN(C(=O)c4ccco4)CC3)nc(N)c2cc1OC [Prazosin hydrochloride] | 94% |
| CCn1cc(C(=O)O)c(=O)c2cnc(N3CCNCC3)nc21 [Pipemidic acid] | 34% |
| Cc1ccc(S(=O)(=O)NC(=O)NN2CC3CCCC3C2)cc1 (stereo not given) [Gliclazide] | 98% |
| COc1ccc(C(=O)NCc2cccnc2)cc1C(=O)NCc1cccnc1 [Picotamide monohydrate] | 93% |
| NC[C@H]1O[C@H](O[C@H]2[C@H](O[C@@H]3O[C@H](CO)[C@@H](O)[C@H]3O)[C@@H](O)[C@H](N)C[C@@H]2N)[C@H](N)[C@@H](O)[C@@H]1O [Ribostamycin sulfate salt] | 67% |
| Cc1ccc(C(=O)c2cc(O)c(O)c([N+](=O)[O-])c2)cc1 [Tolcapone] | 94% |
| COc1ccc2[nH]cc(CCNC(C)=O)c2c1 [Melatonin] | 92% |
| CC(C)N1CCN(c2ccc(OCC3COC(Cn4cncn4)(c4ccc(Cl)cc4Cl)O3)cc2)CC1 (stereo not given) [Terconazole] | 93% |
| CN1C2CCCC1CC(NC(=O)c1nn(C)c3ccccc13)C2 (stereo not given) [Granisetron] | 100% |
| Cc1ncc([N+](=O)[O-])n1CCO [Metronidazole] | 112% |
| CCN(CC)CC#CCOC(=O)C(O)(c1ccccc1)C1CCCCC1 (stereo not given) [Oxybutynin chloride] | 107% |
| OC(CCN1CCCCC1)(c1ccccc1)C1CC2C=CC1C2 (stereo not given) [Biperiden hydrochloride] | 96% |
| O=C(NCCNCC(O)COc1ccc(O)cc1)N1CCOCC1 (stereo not given) [Xamoterol hemifumarate] | 104% |
| CCN(Cc1ccncc1)C(=O)C(CO)c1ccccc1 (stereo not given) [Tropicamide] | 93% |
| CN(C)CCOC1=Cc2ccccc2Sc2ccc(Cl)cc21 [Zotepine] | 99% |
| CCN1CCN(C(=O)N[C@@H](C(=O)N[C@@H]2C(=O)N3[C@@H]2SC(C)(C)[C@@H]3C(=O)O)c2ccccc2)C(=O)C1=O [Piperacillin sodium salt] | 21% |
| CO[C@@H]1[C@@H](OC(N)=O)[C@@H](O)[C@H](Oc2ccc3c(O)c(NC(=O)c4ccc(O)c(CC=C(C)C)c4)c(=O)oc3c2C)OC1(C)C [Novobiocin sodium salt] | 92% |
| NC(=O)N/N=C/c1ccc([N+](=O)[O-])o1 [Nitrofural] | 88% |
| CN1CCCCC1CCN1c2ccccc2Sc2ccc([S+](C)[O-])cc21 (stereo not given) [Mesoridazine besylate] | 99% |

| SMILES | planktonic growth |
| --- | --- |
| CN1CCCC(n2nc(Cc3ccc(Cl)cc3)c3ccccc3c2=O)CC1 (stereo not given) [Azelastine hydrochloride] | 96% |
| CN(C)CCC[C@@]1(c2ccc(F)cc2)OCc2cc(C#N)ccc21 [Escitalopram oxalate] | 92% |
| CCCC(=O)Nc1ncnc2c1ncn2[C@@H]1O[C@@H]2COP(=O)(O)O[C@H]2[C@H]1OC(=O)CCC [Bucladesine sodium salt] | 92% |
| CC(=O)Oc1cccc2c1C(=O)c1c(OC(C)=O)cc(C(=O)O)cc1C2=O [Diacerein] | 104% |
| CCC[C@H](N[C@@H](C)C(=O)N1[C@H](C(=O)O)C[C@@H]2CCCC[C@@H]21)C(=O)OCC [Perindopril] | 94% |
| COc1ccc(NS(=O)(=O)c2ccc(N)cc2)nn1 [Sulfamethoxypyridazine] | 68% |
| Nc1ccc(C(=O)NCC(=O)O)cc1 [Aminohippuric acid] | 94% |
| CC1(C)OC(=O)NC1=O [Dimethadione] | 99% |
| N=C(N)NCC1COC2(CCCCC2)O1 (stereo not given) [Guanadrel sulfate] | 105% |
| Nc1ccc(S(=O)(=O)c2ccc(N)cc2)cc1 [Dapsone] | 76% |
| OCCN1CCN(CCCN2c3ccccc3Sc3ccc(Cl)cc32)CC1 [Perphenazine] | 106% |
| CN(C)CCc1c[nH]c2ccc(Cn3cncn3)cc12 [Rizatriptan benzoate] | 93% |
| c1ccc(C2CN3CCSC3=N2)cc1 (stereo not given) [Tetramisole hydrochloride] | 93% |
| C=C1c2cccc(O)c2C(=O)C2=C(O)[C@]3(O)C(=O)C(C(N)=O)=C(O)[C@@H](N(C)C)[C@@H]3[C@@H](O)[C@H]12 [Methacycline hydrochloride] | 23% |
| Cn1c(=O)c2nc[nH]c2n(C)c1=O [Theophylline monohydrate] | 97% |
| Cc1scc2c1N(C(=O)CN1CCN(C)CC1)c1ccccc1NC2=O [Telenzepine dihydrochloride] | 94% |
| CC(=O)c1ccc(S(=O)(=O)NC(=O)NC2CCCCC2)cc1 [Acetohexamide] | 89% |
| CCCCC[C@H](O)/C=C/[C@@H]1[C@@H](C/C=C\CCCC(=O)O)[C@@H](O)C[C@H]1O [Dinoprost trometamol] | 89% |
| CC(COc1ccccc1)N(CCCl)Cc1ccccc1 (stereo not given) [Phenoxybenzamine hydrochloride] | 104% |
| COc1ccc(CN(CCN(C)C)c2ccccn2)cc1 [Pyrilamine maleate] | 105% |
| CCCNC(C)C(=O)Nc1ccccc1C (stereo not given) [Prilocaine hydrochloride] | 95% |
| Cc1cc(=O)oc2cc(O)ccc12 [Hymecromone] | 91% |
| CCOC(=O)c1ccc(OC(=O)CCCCCNC(=N)N)cc1 [Gabexate mesilate] | 105% |
| CCCN[C@H]1CCc2nc(N)sc2C1 [Pramipexole dihydrochloride] | 93% |
| COC1=C(OC)C(=O)C(CCCCCCCCCCO)=C(C)C1=O [Idebenone] | 105% |
